Data published in PubChem BioAssay AID651820 (National Center for Advancing Translational Sciences (NCATS), 2012).
The campaign covered roughly 340,000 compounds. About 12,000 (3.5%) were called active. Inconclusive means that the source gave no clear call. Such entries were picked first, then a sample of the others. Calls follow the shape of the dose curve; as a rule, active = well fitted inhibition curve with a large enough effect; inconclusive = small, poorly fitted or top-dose-only effect, or another doubt; inactive = no such curve, though single readings can be large or run the other way. Potencies of inconclusive entries are left out as doubtful fits.

Assay: qHTS Assay for Inhibitors of Hepatitis C Virus (HCV)
Conditions: Huh7.5.1 HCVcc-Cre (HCVcc is cell-culture hepatitis C virus) infection, luciferase reporter, 44 h; activity change, negative = inhibition: at 41.8 µM (top of the series) unless noted
In short: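 Cells (1,000/well) were plated 4 h before compound, then infected with HCVcc-Cre virus (~0.5 moi). After 44 h further culture, infection was read as luciferase luminescence following a 15 min substrate incubation at room temperature.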
% is scaled to controls: 0 for no effect and ±100 for the full control effect; potency is read from the fitted curve at half-maximal effect; tags tell the direction and shape of the fitted curve.

SMILES	Potency	activity change, negative = inhibition
Cc1cc(C)c(C)c(C(=O)COC(=O)CNC(=O)CNC(=O)c2ccco2)c1C	inactive	–
COc1ccc2c(c1)c1nc3ccccc3nc1n2CCCN1C(=O)c2ccccc2C1=O	inconclusive [inhibitor, partial curve, poor fit]	–
C=C1[C@H]2O[C@H]2[C@@H](OC(C)=O)[C@@]2(C)[C@@H](OC(C)=O)C[C@@H](OC(C)=O)[C@@](C)(O)[C@@H]2[C@@H](OC(C)=O)[C@@]2(O)[C@@H](C)C(=O)O[C@H]2[C@H]1Cl	–	inactive: -12.6% [at 8.37 µM]
COc1ccc(Cl)cc1NC(=O)C1(c2cccs2)CCOCC1	inconclusive [inhibitor, single point]	–
CSc1nnc(C)c(/C=C/NOCc2ccc(Cl)cc2)n1	inconclusive [inhibitor, partial curve]	–
Oc1ccc(N=Nc2cccc(C(F)(F)F)c2)cc1C=Nc1ccc(N2CCOCC2)cc1	inactive	–
CCCCN(C(=O)Cc1ccc(S(=O)(=O)N2CCOCC2)s1)c1c(N)n(CCCC)c(=O)[nH]c1=O	inconclusive [inhibitor, partial curve]	–
CCOCCCn1c(SCC(=O)Nc2cc(OC)ccc2OC)nc2ccccc2c1=O	inconclusive [inhibitor, single point]	–
CCc1ccc(N2C(=O)c3sc4nnc(-c5ccccc5)c(=O)n4c3C2=O)cc1	inactive	–
Cn1ncc2c(N3CCC(Cc4ccccc4)CC3)ncnc21	inconclusive [inhibitor, partial curve]	–
COC(=O)c1c(NC(=O)Cn2cc([N+](=O)[O-])cn2)sc2c1CCC2	inconclusive [inhibitor, partial curve]	–
COc1cc(NS(=O)(=O)c2ccc(OC)c(C)c2C)c(OC)cc1Cl	active: 10 µM	–
Cc1ccc(NC(=O)CNC(=O)c2ccc(OC(F)F)cc2)cc1S(=O)(=O)N1CCCCCC1	active: 15.8 µM	–
O=S(=O)(c1cccc(-c2cn3ccccc3n2)c1)N1CCCCC1	inconclusive [inhibitor, single point]	–
Cc1ccc(Nc2nc(N)c([N+](=O)[O-])c(NCc3ccccc3)n2)cc1	inactive	–
CCN(CC)C(=O)c1ccc(Nc2nnc(C)c3ccccc23)cc1	inconclusive [inhibitor, single point]	–
CCOc1ccccc1/C=C/c1onc(C)c1S(=O)(=O)N1CCC(C(=O)N2CCCCCC2)CC1	inconclusive [inhibitor, partial curve, poor fit]	–
COc1cc(/C=N/NC(=O)CCC(=O)Nc2ccc(C)cc2)ccc1O	inactive	–
CCOC(=O)c1cc2sc(C)cc2n1CC(=O)Nc1cccc(C)c1C	inactive	–
Cc1ccc(NC(=S)NC2CC3CCC(C2)N3Cc2ccco2)cc1C (stereo not given)	inactive	–
Cc1csc(N2CCN(c3cc4c(cc3Cl)nc(-c3ccncc3)n4CCCN3CCCC3)CC2)n1	inconclusive [inhibitor, full curve]	–
Cc1cc(Cl)c2oc(C(=O)N3CCC(O)(c4ccccc4)CC3)c(C)c2c1	inconclusive [inhibitor, single point]	–
CC(C)C[C@@H](CN1CCCC1CN1C(=S)NC[C@@H]1Cc1ccc(O)cc1)N1C[C@H](Cc2ccccc2)N(CC2CCCCC2)C1=S (stereo not given in full)	active: 22.4 µM	–

SMILES	Potency	activity change, negative = inhibition
N#Cc1nc(-c2ccccc2F)oc1N1CCCCC1	inconclusive [inhibitor, partial curve]	–
OCCCc1cn(CC2CCCCC2)nn1	inactive	–
CN1CCN(c2ccc(S(=O)(=O)N3CCCCC3)cc2NC(=O)COc2cccc(Cl)c2)CC1	inconclusive [inhibitor, full curve, poor fit]	–
OCCC1CN(Cc2cnc(-c3ccccc3)s2)CCN1Cc1ccccc1 (stereo not given)	inconclusive [inhibitor, single point]	–
CC1CCN(C(=O)CN2C(=O)NC(c3ccccc3)(c3ccccc3)C2=O)CC1	inactive	–
COc1ccc(CCNC(=O)c2nnc(Cc3c(F)cccc3Cl)o2)cc1OC	inconclusive [inhibitor, single point]	–
CC(Sc1nnc(-c2cccs2)n1C1CC1)C(=O)NCC1CCCO1 (stereo not given)	inactive	–
Cc1ccccc1C(=O)Nc1ccnn1C1CCN(Cc2ccc(CO)o2)CC1	inactive	–
CC(C)(C)c1ccc(S(=O)(=O)N2CCc3nc4ccccc4c(C(=O)O)c3C2)cc1	inactive	–
O=[N+]([O-])c1cccc(Cl)c1NCCNS(=O)(=O)c1ccc(Cl)cc1	inconclusive [inhibitor, partial curve]	–
COc1ccc(COCC(O)CN2CCN(S(=O)(=O)c3c(F)cccc3F)CC2)cc1OC (stereo not given)	active: 35.5 µM	–
Cc1cc([N+](=O)[O-])nn1CC(=O)Nc1cccc2nonc12	inconclusive [inhibitor, single point]	–
CCOc1ccc2nc(N(CCN(C)C)C(=O)c3ccc4c(c3)CCCC4)sc2c1	inconclusive [inhibitor, partial curve]	–
N#C/C(=N\Nc1cccc2ccccc12)c1nnc2n1CCCCC2	inconclusive [inhibitor, partial curve]	–
CCCN(CC(=O)Nc1ccccc1C)C(=O)C1CCN(c2ncnc3sc(C)c(C)c23)CC1	inconclusive [inhibitor, single point]	–
COc1ccccc1C(C[N+](=O)[O-])c1c[nH]c2ccccc12 (stereo not given)	inconclusive [inhibitor, partial curve]	–
CC(=O)NC(c1ccccc1)c1cc(Cl)c2cccnc2c1O (stereo not given)	active: 10 µM	–
COC(=O)c1ccccc1S(=O)(=O)N1CCC(C(=O)NCc2ccco2)CC1	inactive	–
COc1ccc(CC(=O)N2CCN(c3ccccn3)CC2)cc1OC	inactive	–
Nn1c(COc2ccccc2F)nnc1SCC(=O)NC1CCS(=O)(=O)C1 (stereo not given)	–	inactive: -0.327% [at 8.37 µM]
Cc1cc2c(C)nc(-c3ccccc3)nc2o1	active: 3.55 µM	–
CC1c2cc3c(cc2CCN1C(=O)c1ccc(C(F)(F)F)cc1)OCCCO3 (stereo not given)	inconclusive [inhibitor, single point]	–
